Data on 32 sequences can be found in article PMC12820563, “FoxP3 forms a head-to-head dimer in vivo and stabilizes its multimerization on adjacent microsatellites”.

The other results are listed elsewhere or left out.

The target of the test is T1, MBP-FoxP1dN (Mus musculus, UniProt P58462 326-579).
T1 sequence: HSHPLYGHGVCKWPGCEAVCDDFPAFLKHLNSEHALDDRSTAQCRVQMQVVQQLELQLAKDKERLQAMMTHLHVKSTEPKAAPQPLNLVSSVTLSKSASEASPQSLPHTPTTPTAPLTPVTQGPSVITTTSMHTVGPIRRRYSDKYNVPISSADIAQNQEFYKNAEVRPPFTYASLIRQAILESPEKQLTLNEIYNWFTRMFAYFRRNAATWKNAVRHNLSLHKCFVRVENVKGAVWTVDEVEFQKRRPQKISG
The experiment in a line: PD-seq (MBP pull-down with sequencing); 20 mM Tris-HCl pH 7.5, 100 mM NaCl, 1.5 mM MgCl2, 0.4 uM protein, 0.1 uM dsDNA library, 30 min, room temperature, amylose pull-down; high values mean tight binding. As to conditions: protein: recombinant; tags: His6-MBP; chain copies: 2; dsDNA, one strand shown. In a few lines: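 Binding is the reads-per-million enrichment of pull-down relative to input, pooled across replicates. For this, 0.4 µM His6-MBP-tagged mouse FoxP3 or FoxP1 fragment lacking the N-terminus, made in E. coli, was incubated with 0.1 µM Klenow-filled double-stranded degenerate DNA library for 30 min at room temperature in Tris pH 7.5 buffer with NaCl and MgCl2. Complexes bound to amylose resin were washed three times before proteinase K released the DNA for PCR barcoding and Illumina sequencing.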
“GATGATTGTTCTCCCAGCTGATGAATTGATACAATCGAGTAAACAAATTTTCCTAATCTTTCTGTTCAAGCGCCATCTAC”: the binding signal was 1.69 RPM ratio (pull-down/input).

As for “GATGATTGTTCTCCCAGCTGATGAATTGATATCTTCGAGTAAACAAATTTTCCTAATCTTTCTGTTCAAGCGCCATCTAC”, the binding signal was 1.04 RPM ratio (pull-down/input).

Take “GATGATTGTTCTCCCAGCTGATGAATTACCTAAGTCGAGTAAACAAATTTTCCTAATCTTTCTGTTCAAGCGCCATCTAC”: the binding signal is 0.966 RPM ratio (pull-down/input).

Regarding “GATGATTGTTCTCCCAGCTGATGAATTGGGGGTATCGAGTAAACAAATTTTCCTAATCTTTCTGTTCAAGCGCCATCTAC”, the binding signal was 0.983 RPM ratio (pull-down/input).

In the case of “GATGATTGTTCTCCCAGCTGATGAATTCGGCTATTCGAGTAAACAAATTTTCCTAATCTTTCTGTTCAAGCGCCATCTAC”, the binding signal was 0.818 RPM ratio (pull-down/input).

Turning to “GATGATTGTTCTCCCAGCTGATGAATTGGAGTCGTCGAGTAAACAAATTTTCCTAATCTTTCTGTTCAAGCGCCATCTAC”, the binding signal is 0.815 RPM ratio (pull-down/input).

For the sequence “GATGATTGTTCTCCCAGCTGATGAATTTGTTAGGTCGAGTAAACAAATTTTCCTAATCTTTCTGTTCAAGCGCCATCTAC”, the binding signal is 1.16 RPM ratio (pull-down/input).

For the sequence “GATGATTGTTCTCCCAGCTGATGAATTAGACGCCTCGAGTAAACAAATTTTCCTAATCTTTCTGTTCAAGCGCCATCTAC”, the binding signal was 0.989 RPM ratio (pull-down/input).

With “GATGATTGTTCTCCCAGCTGATGAATTGTGTTATTCGAGTAAACAAATTTTCCTAATCTTTCTGTTCAAGCGCCATCTAC”, the binding signal is 2.18 RPM ratio (pull-down/input).

On to “GATGATTGTTCTCCCAGCTGATGAATTGATAACATCGAGTAAACAAATTTTCCTAATCTTTCTGTTCAAGCGCCATCTAC”, for which the binding signal is 1.66 RPM ratio (pull-down/input).

As for “GATGATTGTTCTCCCAGCTGATGAATTGAGATGCTCGAGTAAACAAATTTTCCTAATCTTTCTGTTCAAGCGCCATCTAC”, the binding signal was 1.07 RPM ratio (pull-down/input).

For “GATGATTGTTCTCCCAGCTGATGAATTATGATAATCGAGTAAACAAATTTTCCTAATCTTTCTGTTCAAGCGCCATCTAC”, the binding signal was 1.44 RPM ratio (pull-down/input).

As for “GATGATTGTTCTCCCAGCTGATGAATTACCCGACTCGAGTAAACAAATTTTCCTAATCTTTCTGTTCAAGCGCCATCTAC”, the binding signal is 0.873 RPM ratio (pull-down/input).

With “GATGATTGTTCTCCCAGCTGATGAATTGACCTGTTCGAGTAAACAAATTTTCCTAATCTTTCTGTTCAAGCGCCATCTAC”, the binding signal was 0.98 RPM ratio (pull-down/input).

On to “GATGATTGTTCTCCCAGCTGATGAATTGGTAATATCGAGTAAACAAATTTTCCTAATCTTTCTGTTCAAGCGCCATCTAC”, for which the binding signal is 1.22 RPM ratio (pull-down/input).

Turning to “GATGATTGTTCTCCCAGCTGATGAATTCCGCGCATCGAGTAAACAAATTTTCCTAATCTTTCTGTTCAAGCGCCATCTAC”, the binding signal was 1.2 RPM ratio (pull-down/input).

Take “GATGATTGTTCTCCCAGCTGATGAATTAAATAAATCGAGTAAACAAATTTTCCTAATCTTTCTGTTCAAGCGCCATCTAC”: the binding signal is 1.49 RPM ratio (pull-down/input).

“GATGATTGTTCTCCCAGCTGATGAATTAAGGTTATCGAGTAAACAAATTTTCCTAATCTTTCTGTTCAAGCGCCATCTAC”: the binding signal was 1 RPM ratio (pull-down/input).

As to “GATGATTGTTCTCCCAGCTGATGAATTTCAGCAATCGAGTAAACAAATTTTCCTAATCTTTCTGTTCAAGCGCCATCTAC”, the binding signal is 0.988 RPM ratio (pull-down/input).

With “GATGATTGTTCTCCCAGCTGATGAATTTGACTCTTCGAGTAAACAAATTTTCCTAATCTTTCTGTTCAAGCGCCATCTAC”, the binding signal was 0.761 RPM ratio (pull-down/input).

For “GATGATTGTTCTCCCAGCTGATGAATTTAGTCGCTCGAGTAAACAAATTTTCCTAATCTTTCTGTTCAAGCGCCATCTAC”, the binding signal is 0.946 RPM ratio (pull-down/input).

On to “GATGATTGTTCTCCCAGCTGATGAATTTTGCATCTCGAGTAAACAAATTTTCCTAATCTTTCTGTTCAAGCGCCATCTAC”, for which the binding signal was 1.52 RPM ratio (pull-down/input).

With “GATGATTGTTCTCCCAGCTGATGAATTTTAACGCTCGAGTAAACAAATTTTCCTAATCTTTCTGTTCAAGCGCCATCTAC”, the binding signal is 0.874 RPM ratio (pull-down/input).

With “GATGATTGTTCTCCCAGCTGATGAATTTCTGCGGTCGAGTAAACAAATTTTCCTAATCTTTCTGTTCAAGCGCCATCTAC”, the binding signal was 0.8 RPM ratio (pull-down/input).

As for “GATGATTGTTCTCCCAGCTGATGAATTGGTCGTTTCGAGTAAACAAATTTTCCTAATCTTTCTGTTCAAGCGCCATCTAC”, the binding signal was 0.935 RPM ratio (pull-down/input).

Turning to “GATGATTGTTCTCCCAGCTGATGAATTGTCGTGATCGAGTAAACAAATTTTCCTAATCTTTCTGTTCAAGCGCCATCTAC”, the binding signal is 1.09 RPM ratio (pull-down/input).

Regarding “GATGATTGTTCTCCCAGCTGATGAATTCAGTTTTTCGAGTAAACAAATTTTCCTAATCTTTCTGTTCAAGCGCCATCTAC”, the binding signal was 0.988 RPM ratio (pull-down/input).

With “GATGATTGTTCTCCCAGCTGATGAATTCACTAGCTCGAGTAAACAAATTTTCCTAATCTTTCTGTTCAAGCGCCATCTAC”, the binding signal is 0.809 RPM ratio (pull-down/input).

With “GATGATTGTTCTCCCAGCTGATGAATTAGGCAATTCGAGTAAACAAATTTTCCTAATCTTTCTGTTCAAGCGCCATCTAC”, the binding signal was 1.04 RPM ratio (pull-down/input).

As for “GATGATTGTTCTCCCAGCTGATGAATTAACGCACTCGAGTAAACAAATTTTCCTAATCTTTCTGTTCAAGCGCCATCTAC”, the binding signal is 1.06 RPM ratio (pull-down/input).

“GATGATTGTTCTCCCAGCTGATGAATTGTGCGGCTCGAGTAAACAAATTTTCCTAATCTTTCTGTTCAAGCGCCATCTAC”: the binding signal is 0.877 RPM ratio (pull-down/input).

Regarding “GATGATTGTTCTCCCAGCTGATGAATTCTTGCGTTCGAGTAAACAAATTTTCCTAATCTTTCTGTTCAAGCGCCATCTAC”, the binding signal is 1.01 RPM ratio (pull-down/input).
